Results taken from the supplement of paper PMC4723716.
± gives the uncertainty stated by the source. Whole data set: some 9,900 compounds, median “viability index relative to DMSO control” near 1, cut for the lowest 2% near 0.85. The list shows a part of the results.

These compounds were tested on Plasmodium falciparum NF54 stage V gametocytes (assay: viability index relative to DMSO control (fraction); higher = less gametocyte killing). Conditions: 2.5 µM, library set: Broad Institute DOS, incubation time: 72 h.
Outline: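 Gametocytes (P. falciparum NF54, stage V) were treated with compound at 2.5 µM for 72 hr at 37°C in low oxygen, in serum-free medium at 0.75% gametocytemia and 1.25% hematocrit. Counts of 20–70 µm2 red particles, taken from one field per well after MitoTracker Red CMXRos with saponin, were divided by the plate mean of solvent-only wells. This ratio is the viability index.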

Compound	viability index
C[C@@H]1CN([C@@H](C)CO)C(=O)CCCn2cc(nn2)CO[C@@H]1CN(C)C(=O)c1ccc(N2CCN(C)CC2)cc1	1.01 ± 0.096
O=C(C[C@H]1CC[C@H](NC(=O)c2cccnc2)[C@H](CO)O1)NCc1ccc(Cl)c(Cl)c1	0.928 ± 0.12
CO[C@@H]1CN(C)C(=O)c2cc(NS(C)(=O)=O)ccc2OC[C@@H](C)N(C(=O)C2CCOCC2)C[C@H]1C	1.16 ± 0.051
COc1ccc2c3c([nH]c2c1)[C@H](CO)N(C[C@]31CN(Cc2ccccc2)C1)S(=O)(=O)c1ccc(C)cc1	0.934 ± 0.13
N#C[C@H]1[C@H](c2ccccc2)[C@H](CO)N1S(=O)(=O)c1cccc(F)c1	1.1 ± 0.012
O=C(c1cccc(F)c1)N1CC2(C1)[C@H](c1ccccc1)[C@H](CO)N2C(=O)C1CCCCC1	1.13 ± 0.084
O=C(C[C@@H]1CC[C@H]2NC[C@H](O)COC[C@@H]2O1)NCc1ccc2c(c1)OCO2	1.12 ± 0.012
N#C[C@@H]1[C@H](c2ccccc2C2=CCCC2)[C@@H](CO)N1C(=O)c1cccc(F)c1	1.03 ± 0.075
C[C@@H]1CN([C@H](C)CO)S(=O)(=O)c2ccc(C#Cc3cccc(F)c3)cc2O[C@@H]1CN(C)S(=O)(=O)c1cn(C)cn1	1.01 ± 0.055
CCCNC(=O)N1C[C@]2(CCN(CC2)C(=O)Nc2cccc(F)c2)c2c([C@H]1CO)n(C)c1cc(OC)ccc21	0.991 ± 0.079
COCC(=O)Nc1ccc2c(c1)OC[C@@H](C)N(C)C[C@H](C)[C@H](OC)CN(C)C2=O	1.03 ± 0.12
COc1ccccc1C(=O)Nc1ccc2c(c1)C(=O)N(C)C[C@H](OC)[C@H](C)CN(C(C)=O)[C@@H](C)CO2	1.08 ± 0.099
C/C=C/c1ccc([C@@H]2[C@H]3CN(C(=O)Nc4cccc(OC)c4)CC(=O)N3[C@H]2CO)cc1	1.03 ± 0.09
O=C(CN1CCOCC1)N[C@H]1CC[C@H](CCn2cc(C3CC3)nn2)O[C@H]1CO	1.18 ± 0.14
C[C@@H]1C/C=C/C[C@@H](c2cccc(Cl)c2)NC(=O)[C@H](Cc2ccccc2)N(C)C(=O)c2ccccc2O1.C[C@@H]1C/C=C\C[C@@H](c2cccc(Cl)c2)NC(=O)[C@H](Cc2ccccc2)N(C)C(=O)c2ccccc2O1	0.94 ± 0.029
CCCC#Cc1ccc([C@@H]2[C@H]3CN(C(=O)c4cccnc4)CC(=O)N3[C@H]2CO)cc1	1.03 ± 0.029
COc1ccc2c3c([nH]c2c1)[C@H](CO)N(Cc1ccccc1OC)C[C@]31CCN(CC1)S(=O)(=O)c1ccccc1	1.06 ± 0.021
CO[C@H]1CC[C@H]2CCN(C)C(=O)CCCN(C)C(=O)c3cc(C#N)ccc3OC[C@H]1O2	0.96 ± 0.015
CN1C(=O)c2cc(NC(=O)c3cscn3)ccc2OC[C@@H]2O[C@H](CC(=O)N3CCOCC3)CC[C@@H]21	1.03 ± 0.016
O=C(Cc1ccccn1)N1CC(=O)N2[C@@H](CO)[C@@H](c3ccc(C#CCC4CCCC4)cc3)[C@@H]2C1	1.12 ± 0.025
Cc1ccc(OC(=O)N(C)C[C@@H]2OCc3ccccc3-c3ccccc3C(=O)N([C@H](C)CO)C[C@@H]2C)cc1	0.993 ± 0.036
CCC(=O)N1[C@H](CO)[C@@H](c2ccccc2-c2ccccc2)[C@@H]1C#N	1.08 ± 0.15
CO[C@H]1CN(C)C(=O)c2cc(NC(C)=O)ccc2OC[C@H](C)N(Cc2ccncc2)C[C@H]1C	0.988 ± 0.093

Compound	viability index
Cc1ccc(S(=O)(=O)Nc2ccc3c(c2)C(=O)N([C@@H](C)CO)C[C@@H](C)[C@H](CN(C)Cc2ccc(C(F)(F)F)cc2)O3)cc1	1.03 ± 0.14
C[C@@H]1CN([C@H](C)CO)C(=O)c2cccc(NC(=O)NC3CCCCC3)c2O[C@@H]1CN(C)Cc1ccc(C(F)(F)F)cc1	0.977 ± 0.071
CO[C@H]1CN(C)C(=O)c2cc(NC(=O)c3ccccc3F)ccc2OC[C@H](C)N(CC2CCOCC2)C[C@H]1C	1 ± 0.11
N#C[C@@H]1N[C@H](CO)[C@H]1c1ccc(C#CC2CCCCC2)cc1	1.14 ± 0.016
CO[C@@H](CN(C)C(=O)c1ccccc1F)[C@H](C)CN([C@H](C)CO)S(=O)(=O)c1ccc(F)cc1	0.955 ± 0.12
O=S(=O)(c1cccc(Cl)c1)N1[C@@H]2CNC[C@H]1[C@H]2c1ccc(-c2cccnc2)cc1	1.05 ± 0.029
O=C(Cc1ccccc1)N1CC[C@H]2[C@H](CO)Nc3ccc(C4=CCCCC4)cc3[C@H]21	1.12 ± 0.039
C[C@H]1CN([C@@H](C)CO)C(=O)CCCn2cc(nn2)CO[C@H]1CN(C)S(=O)(=O)c1cccc(C#N)c1	1.08 ± 0.1
Cc1ccccc1-c1ccc([C@H]2[C@@H](CO)N3C(=O)CN(C(=O)Nc4cccc(F)c4)C[C@@H]23)cc1	1 ± 0.032
COc1cccc(NC(=O)Nc2ccc3c(c2)C(=O)N(C)C[C@@H](OC)[C@H](C)CN(CC2CC2)[C@@H](C)CO3)c1	1.046 ± 0.0025
CS(=O)(=O)N1CC(=O)N2[C@@H](CO)[C@@H](c3ccc(Br)cc3)[C@@H]2C1	1.01 ± 0.065
COc1ccc([C@@H]2C/C=C\C[C@@H](c3ccc4c(c3)OCO4)NC(=O)[C@@H](c3ccccc3)CC(=O)N2)c(OC)c1	1 ± 0.021
COc1ccc(-c2cccc(-c3nc(C(=O)N(C)C)cc4c3[C@@H](CCO)N([S@](=O)C(C)(C)C)C4)c2)cc1	1.01 ± 0.043
N#C[C@H]1N[C@H](CO)[C@H]1c1ccc(C#CC2CCCCC2)cc1	1.17 ± 0.033
O=C(C[C@@H]1CC[C@@H]2[C@H](COC[C@@H](O)CN2Cc2cccc(Cl)c2)O1)NCc1cccc(F)c1	1.06 ± 0.094
C[C@H]1CN([C@@H](C)CO)C(=O)c2ccccc2-c2ccccc2CO[C@H]1CN(C)Cc1ccccc1C(F)(F)F	0.726 ± 0.14
COCC(=O)N1[C@@H]2CN(C)c3ccccc3[C@@H]2[C@@H]1CO	1.05 ± 0.034
C/C=C/c1ccc([C@H]2[C@H](CO)N3C(=O)CN(C(=O)c4ccncc4)C[C@@H]23)cc1	1.06 ± 0.017
COc1ccccc1-c1ccc([C@@H]2[C@H](C#N)N[C@@H]2CO)cc1	1.012 ± 0.0071
O=C(C[C@H]1CC[C@@H]2[C@H](COC[C@@H](O)CN2S(=O)(=O)c2cccc(Cl)c2)O1)N1CCOCC1	1.05 ± 0.082
N#C[C@@H]1[C@@H](c2ccccc2-c2ccccc2F)[C@@H](CO)N1C(=O)Cc1ccccc1	1.07 ± 0.16
CN1CCN(C(=O)C[C@H]2CC[C@H]3[C@@H](COc4ccc(NC(=O)c5cccs5)cc4C(=O)N3C)O2)CC1	1.05 ± 0.048
COc1ccccc1NC(=O)N1C[C@H](O)COC[C@H]2O[C@H](CC(=O)N3CCC(Cc4ccccc4)CC3)CC[C@@H]21	1.11 ± 0.14
